Assay results: PubChem BioAssay AID1963576 (National Center for Advancing Translational Sciences (NCATS), 2024)
In all, about 46,000 compounds went through this assay and about 60 (0.1%) were called active. Another 3% or so got no clear call; they are omitted. Calls follow the shape of the dose curve; as a rule, active = well fitted inhibition curve with a large enough effect; inconclusive = small, poorly fitted or top-dose-only effect; inactive = no such curve, though single readings can be large or run the other way. Some of the results follow.

Assay: Primary qHTS assay for Inhibitors of ovarian cancer metastasis using an organotypic tumor microenvironment (TME) model. Also: nearly all actives have a fitted effect of over 65% in size.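 As to activity change, negative = inhibition: plate controls were DMSO wells for no effect and tomatine positive control wells for full effect.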
Details: SKOV3ip1-GFP adhesion/invasion on 3D omental model, fluorescence; series mostly up to 45.8 µM; activity change, negative = inhibition: at the top concentration
Procedure, shortened: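 Primary human omental fibroblast/mesothelial 3D culture pre-formed 48 h. SKOV3ip1-GFP cells added with compounds (0.36-46 umol/L), incubated 2 h RT/16 h 37 C, fixed; GFP cells quantified at 488/509 nm.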

Activity change, negative = inhibition, inactive:
CCc1nn(CC(=O)N(C)Cc2ccccc2)c(=O)c2cc3sccc3n12 23.2%, COC(=O)c1sccc1S(=O)(=O)N(CC(=O)Nc1ccccc1F)c1ccccc1 -3.69%, CN(Cc1ccccc1)c1ncnc2c1nnn2C -4.07%, O=S(=O)(NCC(c1ccco1)S(=O)(=O)c1cccs1)c1ccc(Cl)cc1 (stereo unspecified) -25.7%, O=c1oc2c3c(ccc2c2ccccc12)OCN(Cc1ccccc1Cl)C3 -1.97%, COc1ccc(-c2nnc(SCC(=O)N(C)C3CCCCC3)o2)cc1OC -24.1%, CCOc1ccc(C(=O)c2oc3ccccc3c2NC(=O)c2cc(-c3ccc(Cl)cc3)on2)cc1 -0.75%, COC(=O)c1c(NC(=O)Cc2coc3ccc(C(C)C)cc23)sc2c1CCC2 1.82%, Cc1ccc(NC(=O)Nc2ccccc2OCc2cc(=O)n3ccccc3n2)c(Cl)c1 -3.98%, CCn1cc(C(=O)NCCCOC)c(=O)c2cc(S(=O)(=O)N3CCCC3)ccc21 5.99%, Cc1cccc(C(=O)n2nc(-c3cccnc3)nc2NCc2ccccc2)c1 -3.67%, Cc1ccc(C(=O)COC(=O)c2cccc(NC(=O)c3ccc(Cl)cc3Cl)c2)cc1 -7.02%, CCC(C(=O)NCc1ccc(OC)c(OC)c1)n1nc(C)c2c(C)n(-c3ccc(C)cc3)nc2c1=O (stereo unspecified) -9.21%, Cc1cc(NC(=O)c2ccc3c(c2)OCCO3)cc(-c2nc3ccccc3o2)c1O -15.1%, Cc1ccc(NS(=O)(=O)c2cc(-c3cnc(C4CC4)o3)ccc2C)cc1Cl -28.6%, COc1ccc(NC(=O)N2CCOc3ccc(Cl)cc32)cc1 48.8%, COc1cc(C(=O)Nc2ccc3c(c2)N(C2CCCC2)C(=O)c2ccccc2S3)cc(OC)c1OC 0.159%, CCOc1ccccc1NC(=O)C1CCCN1S(=O)(=O)c1ccc2c(c1)C(C)(C)C(=O)N2C (stereo unspecified) -0.236%, CCOc1ccccc1NC(=O)CCNS(=O)(=O)c1cccc2nonc12 -21.1%, CC(C)Oc1ccc(C(=O)NCC(c2ccc(N(C)C)cc2)N2CCCC2)cc1 (stereo unspecified) -14.1%, Cc1ccc(C)c(NC(=O)Cn2cc(C(=O)c3cccs3)c3ccccc32)c1 1.69%, CCc1ccc(NC(=O)CCNS(=O)(=O)c2ccc3c(c2)oc(=O)n3C)cc1 18.6%, CCOC(=O)c1ccccc1NC(=O)CN1CCCN(Cc2cccc(Cl)c2)S1(=O)=O 6.59%, CCc1ccccc1NC(=O)CN1CCCN(Cc2cc(C)ccc2C)S1(=O)=O 13.4%, CCCCNC(=O)c1cc(-c2ccc(OC)cc2)nc2n[nH]c(-c3cccc([N+](=O)[O-])c3)c12 -3.76%, COc1ccc(Cl)cc1N(C)C(=O)c1cc2c(=O)oc3ccc(C)cc3c2s1 -5.93%, COc1ccc(Cc2nc3c4cnn(-c5ccccc5F)c4ncn3n2)cc1 -5.81%, COc1ccc(C(=O)NNc2ncnc3c2cnn3-c2cccc(Cl)c2)cc1OC -15.9%, COc1ccc(C(C)=O)cc1CSc1nc(NCCc2ccccc2)c2ccccc2n1 -2.17%, CCN(CC)c1ccc(C(=O)NCc2ccc3c(c2)CCN3C(=O)c2ccc(F)cc2)cc1 0.314%, Cc1ccc(CNC(=O)c2ccc3c(c2)nc2n3CCOC2)cc1 12.2%, Cc1ccc(-n2nc(C)c3c(C(=O)NCCc4ccccc4)cc(C)nc32)cc1 4.63%, COc1ccccc1-c1cc(C(=O)Nc2cc(OC)c(OC)c(OC)c2)no1 -25.7%, CCN(CC)CCCNC(=O)c1nn(C)c2c1CSc1ccccc1-2 -9.27%, COc1ccc(Cl)cc1CNCCSc1nnnn1-c1ccccc1 -1.05%, COc1ccc(C2NC(=O)N(C)C3=C2C(=O)N(c2cccc(C(=O)O)c2)C3)cc1 (stereo unspecified) -5.65%, Cc1cccc(N(CC(=O)NCCSCc2cccc(Cl)c2)S(=O)(=O)c2ccccc2)c1C -3.18%, CCCS(=O)(=O)c1c(S(=O)(=O)CCC)c2cc(CC)ccn2c1C(=O)c1ccc(Cl)cc1 0.728%, Cc1ccc(NC(=O)C2CCN(S(=O)(=O)c3c(C)noc3/C=C/c3cccs3)CC2)cc1F 7.88%, COc1ccc(NC(=O)CCc2nc3c(C)nn(-c4ccc(C)cc4)c3n(C)c2=O)cc1 -1.04%, COc1ccc(-c2ccc(CCC(=O)O)n2-c2ccccc2O)cc1 -9.98%, Cc1cccc(Cn2cc(C(=O)Nc3cc(F)ccc3F)ccc2=O)c1 2.03%, COc1ccc(N2C(=O)Cc3cc(OC)c(OC)cc3C2c2ccc(F)cc2)cc1 (stereo unspecified) 0.453%, CC(CCc1ccccc1)NC(=O)CSc1n[nH]c(-c2ccc(F)cc2)n1 (stereo unspecified) -5%, COc1ccc(S(=O)(=O)Nc2cc3c(C(=O)OC(C)C)c(C)oc3c3ccccc23)cc1 3.34%, COc1ccc(CNC(=O)CN2C(=O)CCn3nc(-c4ccccc4)cc32)c(OC)c1 -18.5%, COc1ccc(C(=O)Nc2ccc(S(=O)(=O)N(Cc3ccccc3)c3ccccc3)cc2)cc1 -2.27%, COc1ccc(-c2nn3c(=O)cc(CN4CCN(S(=O)(=O)c5ccc(C)cc5)CC4)nc3s2)cc1 1.91%, Cn1c(Nc2ccc(Cl)cc2)cc(=O)n(C)c1=O 3.66%, CC1=C(C(=O)Nc2ccc(C)cc2C)C(c2ccc(O)cc2)n2nc(SCC(=O)c3ccc(C)cc3)nc2N1 (stereo unspecified) 4.53%, COc1ccc(-c2nc(Cn3c(SCc4cccc(C(F)(F)F)c4)nc4cccnc43)c(C)o2)cc1OC -3.01%, COc1ccc(C(=O)c2sc3nc(-c4ccc(F)cc4)ccc3c2N)cc1 -1.05%, Cc1oc2ncn(C)c(=O)c2c1C(=O)NCc1ccc(Cl)cc1 1.31%, COc1cccc(NS(=O)(=O)c2ccc3c(c2)N(C)C(=O)CC(=O)N3C)c1 3.53%, Cc1cc(S(=O)(=O)Nc2ccc(C(=O)O)cc2)c(C)c(S(=O)(=O)c2ccc(Cl)cc2)c1 0.504%, Cc1ccc(S(=O)(=O)NCc2nc3cccnc3n2Cc2ccccc2Cl)c(C)c1 -18.8%, CCc1nnc2c(Nc3ccc(N(CC)CC)cc3C)nc3ccccc3n12 -5.45%, CC(=O)c1ccccc1OCC(O)Cn1c(CO)nc2ccccc21 (stereo unspecified) 71.2%, COc1ccccc1NC(=O)CN1C(=O)c2ccccc2Sc2ccc(C(=O)N3CCCC3)cc21 11.3%, O=C(Nc1nc2ccccc2n1CCOc1ccccc1Cl)c1ccccc1 -8.38%, CCOc1cccc(C2c3c(oc4ccc(F)cc4c3=O)C(=O)N2c2cc(C)ccn2)c1 (stereo unspecified) -4.61%, Cc1ccc2ncc(C(=O)c3ccc(C)c(C)c3)c(S(=O)(=O)c3ccccc3)c2c1 4.33%, CCCCC(F)(F)[C@@]1(O)CC[C@H]2[C@H](CC(=O)[C@@H]2CCCCCCC(=O)O)O1 9.64%, C[C@@H]1CCN(C(=O)CC#N)C[C@H]1N(C)c1ncnc2[nH]ccc12 -28.9%, CCN(CC)S(=O)(=O)c1nnc(NC(=O)c2ccc(C)cc2)s1 5.13%, COc1c(O)cc2c(c1O)[C@@H]1O[C@H](CO)[C@@H](O)[C@H](O)[C@H]1OC2=O -11.5%, CC1CCCCN1CCCNC(=O)Cn1ncc2c3ccccc3n(Cc3ccccc3)c2c1=O (stereo unspecified) 2.76%, COc1ccccc1N1CCN(Cc2nc(-c3cc(OC)c(OC)c(OC)c3)no2)CC1 2.24%, COc1ccccc1C1C(C(=O)Nc2ccccc2)=C(C)Nc2nc(-c3ccccc3)nn21 (stereo unspecified) -3.18%, O=C(Cn1ncc2c3ccccc3n(Cc3ccccc3)c2c1=O)NCCCN1CCCCC1 6.79%, COc1ccc(CCN2C(=O)CN(C3CCCCCC3)C(=O)C2c2ccc(Cl)cc2)cc1OC (stereo unspecified) -6.35%, CCN(Cc1ccccc1)C(=O)c1cn(-c2cccc(OC)c2)c(=O)c2ccccc12 0.741%, Cc1ccc(Cl)cc1N1CCN(C(=O)CCc2nnc3n(C)c(=O)c4ccccc4n23)CC1 -0.205%, COc1ccc(CNC(=O)C(CC(C)C)NS(=O)(=O)c2ccc3c(c2)CCN3C(C)=O)cc1 (stereo unspecified) 7.04%, COc1ccc(C(C)=O)c(O)c1 8.11%, COc1ccc(-c2cc(C(=O)Oc3ccc(C#N)cc3)no2)cc1 6.05%, COc1ccc(Nc2nnc(-n3nc(C)cc3C)c3ccccc23)cc1 -6.52%, O=S1(=O)c2ccccc2N(Cc2ccc(F)cc2)c2ccccc21 -9.78%, CCCc1cc(=O)[nH]c(SCc2nc(-c3ccccc3)no2)n1 5.21%

outcome, inactive:
O=C(CCCCn1c(=O)c2ccccc2n(CC(=O)Nc2ccc(F)cc2F)c1=O)NCCc1ccccc1, Cc1ccc(C(=O)NCCc2ccc(S(N)(=O)=O)cc2)cc1-n1cnc2cccnc21, CCOC(=O)c1c(NC(=O)c2cc3nc(-c4ccc(Br)cc4)cc(C(F)(F)F)n3n2)sc(C(C)=O)c1C, Nc1c(C(=O)Nc2ccccc2F)sc2nc3c(cc12)CCCCCC3, Cc1cc(OCC(O)CN2CCN(c3cccc(Cl)c3)CC2)ccc1Cl (stereo unspecified), COc1ccc(OC)c(CNC(=O)C2CCCCN2S(=O)(=O)c2ccc(F)cc2)c1 (stereo unspecified), COc1ccc(C)cc1NC(=O)c1cn(C)c(=O)c2cc(OC)c(OC)cc12, CCCc1nn2c(=O)cc(COC(=O)c3ccc(NC(=O)C4CCCCC4)cc3)nc2s1, CC(C)Cc1nn2c(=O)cc(COC(=O)c3ccccc3NC(=O)C3CCCCC3)nc2s1, O=C(Nc1ccc(Br)cc1F)N1CC=C(c2c[nH]c3ccccc23)CC1, CC(=O)c1ccc(NC(=O)c2nc(-c3ccccc3)n(-c3ccccc3)n2)cc1, CCc1ccccc1NC(=O)N1CC(C)Sc2ccccc21 (stereo unspecified), Cc1cccc(CN2C(=O)c3ccccc3Sc3ccc(C(=O)NCCCN4CCOCC4)cc32)c1, CC1CCN(c2nc3ccccc3nc2C(F)(F)F)CC1, CC1CN(C(=O)N2CCC(C(=O)NCc3ccco3)CC2)c2ccccc2O1 (stereo unspecified), CC(=O)N1CCc2cc(S(=O)(=O)NC(Cc3ccccc3)C(=O)Nc3cc(C)cc(C)c3)ccc21 (stereo unspecified), O=C(NCCOCCn1c(=O)oc2ccccc21)Nc1ccc(F)cc1F
